The inconclusive results got no clear call from the source; some entries with a clear call stand among them for comparison. Potencies beside an inconclusive call are fits to weak or partial responses and may not hold up. Activity calls are given as the source filed them. Calls come from the whole dose curve; as a rule, active = well fitted cell-killing curve with a large enough effect; inconclusive = small, poorly fitted or top-dose-only effect, or effect the other way; inactive = no such curve, though single readings can be large or run the other way.
Assay: Viability qHTS for spleen associated tyrosine kinase inhibitor (SYKi) naive MV4-11 cells (AID 1963823); note: nearly all actives have a fitted effect of over 40% in size
Details: MV4-11 AML viability, CellTiter-Glo luminescence, 72 h; series mostly up to 45 µM
Summary of the method: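 Cells: MV4-11, SYK inhibitor naive, 500 per well. Treatment: library compounds, 72 hr, 37 C, 5% CO2. Read-out: CellTiter-Glo luminescence after 10 min RT.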
Potency is the fitted concentration of half-maximal effect; tags give direction and shape of the fitted curve.

Compound | Potency
CO[C@H]1C[C@H](O[C@H]2CC[C@@]3(C)C(=CCC4C3CC[C@]3(C)[C@@H](C5=CC(=O)OC5)CC[C@]43O)C2)O[C@@H](C)[C@@H]1O[C@@H]1O[C@H](CO[C@@H]2O[C@H](CO)[C@@H](O)[C@H](O)[C@H]2O)[C@@H](O)[C@H](O)[C@H]1O (stereo not given in full) | inconclusive: 7.78 µM [cytotoxic, single point]
C[C@@H]1CCC/C=C/[C@H]2C[C@@H](O)C[C@@H]2[C@@H](O)/C=C/C(=O)O1 | active: 0.184 µM
C[C@]12CC[C@H](O)C[C@@H]1CC[C@@H]1[C@@H]2CC[C@]2(C)C(=O)CC[C@@H]12 | inconclusive: 16.4 µM [cytotoxic, partial curve]
C[C@H]1O[C@@H](O[C@H]2CC[C@]3(CO)C4CC[C@]5(C)[C@@H](C6=CC(=O)OC6)CC[C@]5(O)[C@@H]4CC[C@H]3C2)[C@H](O)[C@H](O)[C@@H]1O[C@@H]1O[C@H](CO)[C@@H](O)[C@H](O)[C@H]1O (stereo not given in full) | inconclusive: 0.968 µM [cytotoxic, full curve]
CCN(CC)CCOC(=O)C(O)(c1ccccc1)c1ccccc1 | inactive
CC12CCC3C(C1)c1c(cc(O)c(C(=O)c4ccccc4)c1OC3(C)C)O2 (stereo not given) | inconclusive: 20.2 µM [cytotoxic, single point]
CCOC(=O)c1c(C(C#N)=CN)c2ccc(Cl)c(Cl)c2n1C | inconclusive: 37.2 µM [cytotoxic, single point]
C=CC(=O)NCNC(=O)C=C | inconclusive: 34.4 µM [cytotoxic, partial curve, poor fit]
O=C1CN=C(c2cccc(Br)c2)c2oc3ccccc3c2N1 | inconclusive: 8.2 µM [cytotoxic, partial curve]
COC[C@@H]1OC(=O)c2coc3c2[C@]1(C)C1=C(C3=O)[C@H]2CC[C@H](O)[C@@]2(C)C[C@@H]1OC(C)=O | active: 8.2 µM
CC1=CC2(O)/C=C/C(C)(O)C(O)C(O)/C=C/C(=O)OC23C(=O)NC(CC(C)C)C3C1C (stereo not given) | inconclusive: 10 µM [cytotoxic, single point]
C/C=C(\C)C(=O)OC1C2C3(C)CCC(OC4CC(OC)C(OC5OC(C)C(O)C(OC)C5O)C(C)O4)CC3CCC23OC32CCC(C(C)=O)C2(C)C1OC(=O)/C(C)=C/C (stereo not given) | inconclusive: 6.93 µM [cytotoxic, single point]

Assay: Viability qHTS for spleen associated tyrosine kinase inhibitor (SYKi) drug resistant MV4-11 cells (AID 1963824); note: nearly all actives have a fitted effect of over 35% in size
Details: SYKi-resistant MV4-11 viability, CellTiter-Glo, 72 h; series mostly up to 45 µM
Summary of the method: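 SYK inhibitor-resistant MV4-11 AML cells, 500 per well, added to predispensed compounds and incubated 72 hr at 37 C, 5% CO2. Viability measured by CellTiter-Glo luminescence after 10 min at room temperature.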

Compound | Potency
CCN[C@@H](C)Cc1ccccc1 | inconclusive: 0.0763 µM [rising, full curve, poor fit]
C[C@H]1C/C=C/[C@H]2[C@@H]3O[C@]3(C)[C@@H](C)[C@H]3[C@H](Cc4ccccc4)NC(=O)[C@]32OC(=O)O/C=C/[C@@](C)(O)C1=O | inconclusive: 0.224 µM [cytotoxic, full curve]
C[C@H]1C(=O)O[C@H]2[C@H](O)[C@]34C5OC(=O)[C@]3(O[C@@H]3OC(=O)[C@H](O)C34[C@H](C(C)(C)C)[C@H]5O)C12O (stereo not given in full) | inactive
C[C@]12CC[C@H]3[C@@H](CCC4=CC(=O)CC[C@@H]43)[C@@H]1CC[C@@H]2OC(=O)CCc1ccco1 | inconclusive: 21.1 µM [cytotoxic, single point]
CC1OC(C)OC(C)O1 (stereo not given) | inactive
CCC(C)(OC(C)=O)C(=O)O[C@H]1[C@H](OC(C)=O)C[C@@H]2[C@@](C)([C@@H]3C[C@H]4C=CO[C@H]4O3)[C@H](C)C[C@H](OC(C)=O)[C@@]2(COC(C)=O)[C@@]12CO2 (stereo not given in full) | inconclusive: 2.73 µM [cytotoxic, partial curve, poor fit]
CN1[C@@H]2CC[C@H]1CC(OC(=O)C1C=Nc3ccccc31)C2 (stereo not given in full) | inconclusive: 16.4 µM [cytotoxic, single point]
CC(=O)OC1CC(O)C(C)(C)C2CC(OC(C)=O)C3(C)C(CCC4(C)C(c5ccoc5)C(=O)C5OC543)C12C (stereo not given) | inconclusive: 8.93 µM [cytotoxic, single point]
CC(C)NC(C)C | inactive
O=C(CBr)N1CC([N+](=O)[O-])([N+](=O)[O-])C1 | inconclusive: 34 µM [cytotoxic, partial curve]
COP(=S)(OC)SCN1C(=O)c2ccccc2C1=O | inconclusive: 33.5 µM [cytotoxic, single point]
CCOC(=O)c1c(C(C#N)=CN)c2ccc(Cl)c(Cl)c2n1C | inconclusive: 33.2 µM [cytotoxic, partial curve, poor fit]
C=CC(=O)NCNC(=O)C=C | inactive
